Data: PubChem BioAssay AID493208 (National Center for Advancing Translational Sciences (NCATS), 2011)
About 340 (0.77%) of roughly 44,000 compounds were called active. About 5% were inconclusive and are not listed. Calls follow the shape of the dose curve; as a rule, active = well fitted inhibition curve with a large enough effect; inconclusive = small, poorly fitted or top-dose-only effect; inactive = flat fitted curve, though single readings scatter. Some of the results follow.

Assay: Acumen qHTS Assay for Inhibitors of the mTORC1 Signaling Pathway in MEF (Tsc2-/-, p53-/-) Cells: Sytravon;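 also: plate controls were DMSO for no effect and rapamycin for full effect; nearly all actives have a fitted effect of over 50% in size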
Conditions: phospho-rpS6 immunofluorescence/PI, 24 h; series mostly up to 38.3 µM; activity change, negative = inhibition: at the top concentration
In short: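 Readout is phospho-S6 Alexa 488 signal normalized to PI per well, reported as % active cells with thresholds set from rapamycin (7.5 nM) and DMSO controls. Cells: Tsc2-/-, p53-/- MEFs, 24 hrs compound at 37 C; PI cell number serves as viability.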

| Compound | activity change, negative = inhibition |
| --- | --- |
| CC(C)c1ccc(S(=O)(=O)N2CCC(N3CCN(Cc4ccccc4)C(=O)C3=O)CC2)cc1 | inactive: 2.2% |
| CC(CCc1ccccc1)NC(=O)Cn1c(=O)nc(-c2ccccc2)c2ccccc21 (configuration not stated) | inactive: 0% |
| CCOC(=O)c1cnc2c(C)c(Cl)ccc2c1Nc1ccc(N2CCOCC2)cc1 | inactive: -2.48% |
| Cc1cc(C)c(S(=O)(=O)NCC(c2ccc(N(C)C)cc2)N2CCOCC2)c(C)c1 (configuration not stated) | inactive: 0.998% |
| Cc1ccc2oc(=O)n(CCCOc3ccccc3Cl)c2c1 | inactive: 13% |
| COc1ccccc1-c1noc(-c2ccc(NCC3CCCO3)c([N+](=O)[O-])c2)n1 (configuration not stated) | inactive: 0% |
| CCc1cccc(NC(=O)CN(C)S(=O)(=O)c2ccc3c(c2)CCCN3C(C)=O)c1 | inactive: -2.16% |
| COc1ccc(C2=C(Nc3ccc(C)cc3C)c3ccccc3C2=O)cc1 | inactive: -2.87% |
| CCCCN(C)CCNC(=O)CN1C(=O)CSc2ccc(S(=O)(=O)N3CCOCC3)cc21 | inactive: 4.5% |
| CCc1nn2c(=O)c(S(=O)(=O)Nc3ccc(Cl)cc3)c(C)nc2s1 | inactive: 7.81% |
| Cc1ccccc1Nc1c(-c2cccnc2)nc2ccc(Cl)cn12 | inactive: 2.86% |
| Cc1ccc(OCC(=O)Nc2nnc(S(=O)(=O)N3CCCCCC3)s2)cc1 | inactive: 0% |
| O=C(NCc1ccc(F)cc1)C1(c2cccs2)CCOCC1 | inactive: -2.52% |
| COc1cc(Nc2nc3c(S(=O)(=O)c4ccc(C)c(C)c4)nnn3c3ccsc23)cc(OC)c1 | inactive: -5.27% |
| CCOC(=O)c1c(NC(=O)C2c3ccccc3Oc3ccccc32)sc(C)c1CC | inactive: 0.695% |
| CCn1c(=O)cc(OCC(=O)N(C)c2cc(Cl)ccc2C)c2ccccc21 | inactive: -4.82% |
| COC(=O)c1ccccc1NC(=O)N1CCC(N2CCN(Cc3ccc(F)cc3)C(=O)C2=O)CC1 | inactive: 2.92% |
| CC(C)(C)C1CCc2nc(NC(=O)Cc3ccccc3)sc2C1 (configuration not stated) | inactive: -0.518% |
| COc1ccccc1N1C(=O)N(CC(=O)C(C)(C)C)c2ccccc2S1(=O)=O | inactive: 0.688% |
| CN(C)CCNC(=O)c1ccc(-c2nn(C)c(=O)c3ccccc23)cc1 | inactive: -4.71% |
| O=C1CN(C(=O)COc2ccc(Cl)cc2Cl)C(c2ccccc2)c2cc(F)ccc2N1 (configuration not stated) | inactive: 0% |
| CCOc1ccc(CCNC(=O)c2nn(C)c3c2CSc2ccccc2-3)cc1 | inactive: 3.32% |
| CCOc1ccccc1CNC(=O)CCCn1ccc2cc(S(=O)(=O)N3CCCC3)ccc21 | inactive: -9.27% |
| O=C(O)c1ccc(NC(=O)c2cc(S(=O)(=O)N3CCCCC3)c(Cl)cc2Cl)cc1 | inactive: 2.62% |
| Cc1cccc(C(=O)NNc2ncnc3c2cnn3-c2ccc(C)cc2C)c1 | inactive: -15.5% |

| Compound | activity change, negative = inhibition |
| --- | --- |
| CC(C)c1ccc(S(=O)(=O)c2cnc(SCC(=O)Nc3ccc4c(c3)OCCO4)[nH]c2=O)cc1 | inactive: -1.3% |
| COc1cccc(C(=O)Nc2nnc(S(=O)(=O)N3CCCC3)s2)c1 | inactive: 2.47% |
| Cc1ccc(Cn2cnc3nc4c(cc3c2=O)CC(C)CC4)cc1 (configuration not stated) | inactive: -3.4% |
| CCCNC(=O)CN1C(=O)CSc2ccc(S(=O)(=O)N3CCC(C)CC3)cc21 | inactive: -0.421% |
| CCC(C)NC(=O)CCCc1nnc2n(CC(C)C)c(=O)c3sccc3n12 (configuration not stated) | inactive: 0.126% |
| CCN(CC)C(=O)C1CCN(S(=O)(=O)c2c(C)noc2/C=C/c2cccc(OC)c2)CC1 | inactive: -0.548% |
| CCOc1ccc(NC(=O)c2cc(S(=O)(=O)NC3CCCCCC3)ccc2F)cc1 | inactive: -0.188% |
| Cc1ccccc1-c1noc(-c2ccc(NCc3ccco3)c([N+](=O)[O-])c2)n1 | inactive: 5.05% |
| COc1ccc2c(c1)CCc1c(C(=O)Nc3c(C)nn(Cc4ccccc4)c3C)noc1-2 | inactive: -17% |
| COc1ccc2c(Sc3ccc(C)cc3)c(C(=O)NC(C)C)[nH]c2c1 | inactive: -13.8% |
| CCOc1ccccc1NC(=O)CSc1nccn1-c1cccc(C)c1 | inactive: 0.307% |
| CCOc1ccc(-n2c(=O)c3c(C)c(C)sc3n(CC(=O)NCCc3ccccc3)c2=O)cc1 | inactive: -1.19% |
| CCOc1ccc(C2CC(=O)c3c([nH]c(C(=O)OCC4CCCCC4)c3C)C2)cc1 (configuration not stated) | inactive: 2.66% |
| Cc1ccc(S(=O)(=O)C(CNC(=O)C(=O)NCCc2ccccc2)c2cccs2)cc1 (configuration not stated) | inactive: -11.1% |
| O=c1oc2ccccc2c(N2CCN(c3ccccc3F)CC2)c1CN1CCCC1 | inactive: 8.18% |
| COCCCNC(=O)c1nn(-c2ccc(C)cc2)nc1CO | inactive: -2.75% |
| Cc1cccc(CNC(=O)Cn2ccc3cc(S(=O)(=O)N4CCCCCC4)ccc32)c1 | inactive: -10.7% |
| COc1cccc(NC(=O)C(Cc2ccccc2)NS(=O)(=O)c2ccc3c(c2)c(=O)n(C)c(=O)n3C)c1 (configuration not stated) | inactive: -1.82% |
| CCCc1cc(=O)oc2cc(C)c3c(-c4ccccc4)coc3c12 | inactive: -0.853% |
| O=C(CN1C(=O)CSc2ccc(S(=O)(=O)N3CCCC3)cc21)Nc1cccc(Cl)c1 | inactive: -6.63% |
| Cc1ccc(NC(=O)CC2Nc3ccccc3NC2=O)cc1C (configuration not stated) | inactive: 2.89% |
| Cc1ccccc1C(=O)N(Cc1sccc1C)C1CCS(=O)(=O)C1 (configuration not stated) | inactive: 2.68% |
| COc1ccc(CCNC(=O)c2ccc(Cn3c(=O)c4ccccc4n(CC(=O)C(C)(C)C)c3=O)cc2)cc1OC | inactive: -0.0697% |
| COc1cc(NC(=O)CCn2nc(C)c(S(=O)(=O)N3CCCCC3)c2C)cc(OC)c1OC | inactive: 2.59% |
| Cc1ccc(Cl)cc1NC(=O)CCCn1c(=O)c2cccn2c2cccnc21 | inactive: -3.45% |

| Compound | activity change, negative = inhibition |
| --- | --- |
| COc1ccccc1NC(=O)C1=C(C)Nc2c(C(=O)Nc3cccc(C)c3)cnn2C1c1ccccc1Cl (configuration not stated) | inactive: 5.11% |
| CC1CCCCN1CCCNC(=O)CN1C(=O)c2cccnc2Oc2ccccc21 (configuration not stated) | inactive: 0.632% |
| COc1ccc(-c2nc3n(n2)C(c2ccc(OC)c(OC)c2)C(C(=O)Nc2cccnc2)=C(C)N3)cc1 (configuration not stated) | inactive: 4.43% |
| COCCCNC(=O)c1ccc(Cn2c(=O)c3ccccc3n(Cc3c(C)cc(C)cc3C)c2=O)cc1 | inactive: 6.67% |
| CCN1CCN(C(c2ccc(SC)cc2)c2c(O)cc(C)n(CCOC)c2=O)CC1 (configuration not stated) | inactive: -10.8% |
| CCCCN(CC)C(=O)C1CCCN(c2ncnc3onc(C)c23)C1 (configuration not stated) | inactive: -8.11% |
| CCOC(=O)c1c(C)[nH]c(C)c1S(=O)(=O)NCC(=O)NCc1cccc(C)c1 | inactive: -20.8% |
| O=c1cc(-c2ccc(F)cc2)nc(SCc2nc(-c3ccc(Cl)cc3)no2)[nH]1 | inactive: 0% |
| CCOC(=O)c1ccc(CN(Cc2ccc(Br)cc2)S(=O)(=O)c2cccc(Cl)c2C)cc1 | inactive: 2.5% |
| COc1cc(C(=O)NCC(c2ccc(Cl)cc2)N2CCOCC2)cc(OC)c1OC (configuration not stated) | inactive: -13.9% |
| CCOC(=O)CC(NC(=O)Cn1nnc(-c2ccccc2F)n1)c1ccccc1Cl (configuration not stated) | inactive: -4.02% |
| CCc1ccc(C2C(C(=O)Nc3ccccc3C)=C(C)Nc3nc(SCc4cccc(OC)c4)nn32)cc1 (configuration not stated) | inactive: -0.0684% |
| CC(=O)c1ccc(NC(=O)CSc2nc(=O)n(Cc3ccncc3)c3c2CCC3)cc1 | inactive: -1.97% |
| Cc1ccc(N2CCN(C(=O)c3cn(C)c4ccc(S(=O)(=O)N(C)C)cc4c3=O)CC2C)cc1 (configuration not stated) | inactive: -0.403% |
| O=C(Cn1c(=O)nc(-c2ccccc2)c2ccccc21)NCc1ccccc1Cl | inactive: 0% |
| CCS(=O)(=O)c1ncc(N(Cc2ccco2)Cc2ccccc2F)c(C(=O)Nc2cccc(Cl)c2)n1 | inactive: -3.81% |
| O=C(CN1N=C(c2ccc(Cl)cc2)CCC1=O)NCCc1ccccc1 | inactive: 6.86% |
| CC(C)(Oc1ccc(Br)cc1)C(=O)Nc1cc(-c2nc3ccccc3[nH]2)ccc1Cl | inactive: -2.34% |
| Cc1ccc(NC(=O)Cn2nc(Cc3ccncc3)c3ccccc3c2=O)c(Cl)c1 | inactive: -7.42% |
| CCOc1ccc(NC(=O)c2oc3ccccc3c2NC(=O)c2ccc(OC)cc2OC)cc1 | inactive: -0.0549% |
| COc1ccccc1CNC(=O)CN1N=C(c2ccccc2)CCC1=O | inactive: 9.84% |
| COc1ccc(CNC(=O)CS(=O)Cc2nc(-c3cccc(C)c3)oc2C)cc1 (configuration not stated) | inactive: -9.5% |
| Fc1ccccc1N1CCN(c2nccn3nc(-c4ccc(Br)cc4)cc23)CC1 | inactive: 5.4% |
| Cc1ccc(S(=O)(=O)NCC2CCC(C(=O)NCCCOC(C)C)CC2)cc1 (configuration not stated) | inactive: -6.82% |
| CCCCN(CC)CCNC(=O)c1cc2c(=O)n(CC)c3ccccc3c2s1 | inactive: -15.3% |

| Compound | activity change, negative = inhibition |
| --- | --- |
| CCCCNc1nc2ccccc2c2nc(-c3ccccc3)nn12 | inactive: -13.9% |
| Cc1nc(SCCOc2ccccc2F)[nH]c(=O)c1Cc1ccccc1 | inactive: 4.93% |
| Cc1ccccc1NC(=O)c1oc2c(c1C)-c1nn(Cc3cccc(Cl)c3)cc1CC2 | inactive: 8.71% |
| Cc1oc(-c2ccc(Cl)cc2)nc1CN1CCCC(C(=O)NCc2ccccc2)C1 (configuration not stated) | inactive: -1.05% |
| Cc1ccc(-n2c(COCC(=O)O)nc3cccnc32)cc1 | inactive: 3.77% |
| Cc1ccc(/C=C(\C#N)C(=O)Nc2cccc(Br)c2)o1 | inactive: 2.52% |
| Cc1ccc(Cl)cc1N1CCN(C(=O)c2cc3c(=O)oc4ccccc4c3s2)CC1 | inactive: 1.35% |
| CCN1CCN(C(c2ccccc2Cl)c2c(O)cc(C)n(CCOC)c2=O)CC1 (configuration not stated) | inactive: -1.26% |
| CCCCn1c(=O)nc2n(-c3ccc(Br)cc3)c3ccccc3cc-2c1=O | inactive: -0.74% |
| Nc1nn(-c2ccccc2)nc1C(=O)OCc1ccccc1 | inactive: -0.817% |
| CC1CCCN(CCCNC(=O)Cn2ncc3c([nH]c4ccccc43)c2=O)C1 (configuration not stated) | inactive: -4.96% |
| COc1cccc(C(=O)Nc2nc(-c3ccc(Br)cc3)ns2)c1 | inactive: 1.73% |
| CCOC(=O)Cc1ccc(NC(=O)N(Cc2ccc(CC)cc2)Cc2cn[nH]c2-c2ccc(OC)cc2)cc1 | inactive: 1.64% |
| Cc1ccccc1OCCn1c(CCNC(=O)C2CCCCC2)nc2ccccc21 | inactive: -0.793% |
| Cc1nc2ccc(S(=O)(=O)NCC(=O)Nc3ccc(F)cc3F)cc2s1 | inactive: -9.69% |
| Cc1ccc(S(=O)(=O)N2CCN(Cc3nc4ccc(C)cc4o3)CC2)c(C)c1 | inactive: 0% |
| Cc1ccc(-n2c(SCC(=O)N3CCCc4ccccc43)nc3c([nH]c4ccccc43)c2=O)cc1 | inactive: 1.23% |
| CCc1ccccc1-n1nnc(-c2nsc(NC(=O)c3ccc(C)c(C)c3)n2)c1C | inactive: -4.05% |
| CCc1ccc(OCCn2c(C3CC(=O)N(Cc4ccc(F)cc4)C3)nc3ccccc32)cc1 (configuration not stated) | inactive: -0.988% |
| CC(C)(C)C(=O)Nc1ccccc1C(=O)OCc1cc(=O)n2ccsc2n1 | inactive: 14.1% |
| COCCCNC(=O)CSC1=Nc2ccccc2C2=NC(CCC(=O)NCc3ccc(OC)cc3)C(=O)N12 (configuration not stated) | inactive: 0.905% |
| CCOC(=O)c1c(C)[nH]c(C)c1S(=O)(=O)N(C)CC(=O)Nc1ccc(C)cc1Br | inactive: 2.47% |
